Consider 62 compounds from PubChem BioAssay AID1508623 (National Center for Advancing Translational Sciences (NCATS), 2021).

The whole screen tested about 48,000 compounds, of which about 450 (0.94%) were called active. Roughly 19% stayed inconclusive and do not appear here. Calls come from the whole dose curve; as a rule, active = well fitted inhibition curve with a large enough effect; inconclusive = small, poorly fitted or top-dose-only effect; inactive = no such curve, though single readings can be large or run the other way. This is one part of the list.
Potency is the fitted concentration of half-maximal effect.

The assay in a line: Primary qHTS for Identification of Small Molecule Inhibitors of Huntingtin Promoter Activity. Note: nearly all actives have a fitted effect of over 50% in size. The settings on record: HEK293 HTT promoter firefly luciferase reporter (activity 0% = vehicle and -100% = no light), 24 h; series mostly up to 57.5 µM; activity change, negative = inhibition: at the top concentration. In a few lines:
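Luminescence was read after Dual-Glo reagent and a 10 min room-temperature incubation. Values were normalized to vehicle (0% activity) and zero RLU (-100% activity). Reporter HEK293 cells had been exposed to compounds (up to 57.5 uM final) for 24 h.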
For orientation: Quantitative high-throughput screening tests each substance at several concentrations.
As to `Cc1cccc(C(c2sc3nc(-c4ccco4)nn3c2O)N2CCN(c3ccccc3)CC2)c1` (configuration not stated), the “activity change, negative = inhibition” value is inactive: 3.53%.
In the case of `COC(=O)c1ccccc1NC(=O)c1cc2nc(-c3ccc(OC)cc3)cc(C(F)(F)F)n2n1`, the “activity change, negative = inhibition” value is inactive: -0.107%.
With `Cc1ccc(NC(=O)c2ccc(NC(=O)N3CCSc4nc(C)cc(C)c43)cc2)c(Cl)c1`, the “activity change, negative = inhibition” value was inactive: -19.8%.
Regarding `O=C(Cn1nc2c(cc1=O)CCCC2)Nc1ccccc1C(F)(F)F`, the “activity change, negative = inhibition” value is inactive: 9.9%.
For the compound `Cc1ccc(C)c(NC(=O)c2ccc3nc(CCc4ccccc4)oc3c2)c1`, the “activity change, negative = inhibition” value was inactive: 9.48%.
As to `O=C(CSc1n[nH]c(-c2ccccc2Cl)n1)N1CCN(c2ccccc2)CC1`, the “activity change, negative = inhibition” value is inactive: 0.121%.
As to `CCOC(=O)CNS(=O)(=O)c1cc(-c2nnc(Nc3cccc(O)c3)c3ccccc23)ccc1C`, the “activity change, negative = inhibition” value was inactive: -1.5%.
As to `CCCc1ccc(C2Sc3ccccc3NC3=C2C(=O)c2ccccc23)cc1` (configuration not stated), the Potency was active: 31.6 µM.
For the compound `Cc1cc(NC(=O)c2cccs2)cc(-c2nc3cc(Cl)ccc3o2)c1O`, the “activity change, negative = inhibition” value is inactive: -11.3%.
On to `C[C@@H]1CCO[C@H]2Cn3cc(C(=O)NCc4ccc(F)cc4F)c(=O)c(O)c3C(=O)N12`, for which the “activity change, negative = inhibition” value is inactive: 8.51%.
Regarding `CCC(=O)NCc1cc(-c2nn(C)c(=O)c3ccccc23)ccc1OC`, the “activity change, negative = inhibition” value was inactive: -4.41%.
Turning to `CCC(C)(C)C1CCc2c(sc(NC(=O)C3c4ccccc4Oc4ccccc43)c2C(N)=O)C1` (configuration not stated), the “activity change, negative = inhibition” value was inactive: -10.5%.
Consider `O=S(=O)(c1ccccc1)c1nc(-c2cccs2)oc1SCc1ccccc1F`, for which the “activity change, negative = inhibition” value was inactive: -15.8%.
Take `Cc1ccc(C)c(N2CCN(CCCNC(=O)Cn3ncc4c5ccccc5n(C)c4c3=O)CC2)c1`: the “activity change, negative = inhibition” value is inactive: -15.2%.
On the same count and under the same terms, the value for `CCCCC(CC)CNC(=O)C1CCN(S(=O)(=O)c2cccc3nsnc23)CC1` (configuration not stated) was inactive: -11.7%.
Turning to `O=C(O)[C@@H](O)[C@H](O)[C@H](O)[C@@H](O)C(=O)O`, the “activity change, negative = inhibition” value was inactive: 5.81%.
For the compound `N#Cc1nc(-c2ccc(COc3ccc(Cl)cc3)o2)oc1N1CCN(c2ccccc2)CC1`, the “activity change, negative = inhibition” value was inactive: -15.6%.
As for `CCOc1ccc(NC(=O)CCn2cnc3onc(-c4ccc(F)cc4)c3c2=O)cc1`, the “activity change, negative = inhibition” value was inactive: -7.2%.
Regarding `O=C(CSc1nc2c(oc3ccccc32)c(=O)n1-c1ccccc1F)Nc1ccccc1`, the “activity change, negative = inhibition” value is inactive: -20.4%.
Still for that read-out and setting: in the case of `OC[C@H]1O[C@H](O[C@]2(CCl)O[C@H](CCl)[C@@H](O)[C@@H]2O)[C@H](O)[C@@H](O)[C@H]1Cl` it was inactive: 9.57%.
Turning to `CNC(=O)c1cc(Oc2ccc(NC(=O)Nc3cc(C(C)(C)C)nn3-c3ccc4ncccc4c3)c(F)c2)ccn1`, the “activity change, negative = inhibition” value is inactive: -26.2%.
For `Cn1c(=O)cc(SCC(=O)N2CCN(c3ccc(F)cc3)CC2)c2ccc(Cl)cc21`, the “activity change, negative = inhibition” value was inactive: -3.56%.
Same read-out and setting: in the case of `CC(C)CN1CCc2nc(N3CCN(C)CC3)ncc2C1` it was inactive: -2.28%.
Take `Cc1ccc(Nc2c3c(nc4nncn24)CCC3)cc1C`: the “activity change, negative = inhibition” value is inactive: -17.5%.
As to `O=C(CN1C(=O)COc2ccc(S(=O)(=O)N3CCOCC3)cc21)NCc1ccc(F)cc1`, the “activity change, negative = inhibition” value was inactive: 0.284%.
The same measure, in the same setting: in the case of `CCOc1cc(S(=O)(=O)n2ccnc2C(C)C)ccc1Cl` it was inactive: -8.25%.
For `CCn1cc(C(=O)N2CCN(c3ccccc3F)CC2)c(=O)c2cc(S(=O)(=O)N(C)C3CCCCC3)ccc21`, the “activity change, negative = inhibition” value was inactive: -4.06%.
Same read-out and setting: in the case of `CCOC(=O)c1c(C)oc2nc(C)nc(NCc3ccc(Cl)cc3)c12` it was inactive: 12.5%; in that of `COc1ccc(-c2cc3ccc(O)c(CN4CCOCC4)c3oc2=O)cc1`, inactive: 5.9%.
On the same count and under the same terms, in the case of `CC(=O)N1CCc2cc(Br)cc(S(=O)(=O)N3CCC(C(=O)N(C)c4cc(C)ccc4C)CC3)c21` it was inactive: 2.53%; in that of `COc1cc(NC(=O)c2ccccc2)ccc1NC(=O)c1cc2ccccc2o1`, inactive: 4%.
On the same count and under the same terms, in the case of `Cc1cccc(NC(=O)CSc2nc(-c3ccco3)nc3cc(=O)[nH]n23)c1` it was inactive: -9.95%; in that of `COc1ccc(-c2ccc3c(N)c(C(=O)NCc4ccc(Cl)cc4)sc3n2)cc1`, inactive: 4.27%.
As to `COC(=O)c1c(SC)nc2ccccc2c1OCc1ccccc1C`, the “activity change, negative = inhibition” value was inactive: -27.4%.
On the same count and under the same terms, the value for `O=C(CCn1c(=O)c2ccccc2n(Cc2ccc(F)cc2Cl)c1=O)NCc1ccc2c(c1)OCO2` was inactive: -14.4%.
In the case of `Cc1cccc(C)c1NC(=O)Cn1c(=O)n(CC2CCC(C(=O)NCCc3ccccc3)CC2)c(=O)c2ccccc21` (configuration not stated), the “activity change, negative = inhibition” value is inactive: -0.922%.
As to `CCOC(=O)c1noc2ncnc(Nc3ccc(F)cc3F)c12`, the “activity change, negative = inhibition” value was inactive: -22%.
Consider `Cc1ccc(CNC(=O)C2CCN(c3nc4ccccc4n(C)c3=O)CC2)cc1`, for which the “activity change, negative = inhibition” value was inactive: -8.9%.
Regarding `CCOC(=O)CSc1nc2c(sc3ccccc32)c(=O)n1CCc1ccccc1`, the “activity change, negative = inhibition” value was inactive: -9.34%.
For `O=[N+]([O-])c1cc(-c2nc(-c3ccccc3)no2)ccc1N1CCN(c2ccccc2)CC1`, the “activity change, negative = inhibition” value was inactive: -7.56%.
For the compound `Cc1ccc(NC(=O)Cn2nnc(-c3nc(-c4ccncc4)no3)c2N)cc1`, the “activity change, negative = inhibition” value is inactive: 0.956%.
`CCCOc1ccc(CNC(=O)C(CC)n2nc(C)c3sc4ccccc4c3c2=O)cc1` (configuration not stated): the “activity change, negative = inhibition” value was inactive: 0.407%.
With `CCOc1ccc2nc(C)cc(Nc3ccccc3OCC)c2c1`, the “activity change, negative = inhibition” value is inactive: -28.1%.
Take `Cc1ccc(Cl)cc1N1CCN(C(=O)CCC(=O)Nc2ccc3nc(N4CCC(C)CC4)cc(C)c3c2)CC1`: the “activity change, negative = inhibition” value was inactive: -18.1%.
`Cc1ccc(C(=O)O)cc1Nc1nc2ccccc2n2nnnc12`: the “activity change, negative = inhibition” value was inactive: 61.4%.
Turning to `COCCNC(=O)c1c(C)oc2nc(C)nc(N3CCOCC3)c12`, the “activity change, negative = inhibition” value is inactive: 2.1%.
For `CCOC(=O)c1c(NC(=O)c2ccccc2Cl)sc2c1CCCC2`, the “activity change, negative = inhibition” value was inactive: -25.2%.
Still for that read-out and setting: in the case of `O=C(NCCCN1CCN(c2ccc(F)cc2)CC1)Nc1ccc(Cl)cc1` it was inactive: -23.9%.
The same measure, in the same setting: the value for `Cc1ccc(-c2nnc(SCc3ccccc3C#N)o2)cc1` was inactive: 11%; that for `COc1ccc2c(c1)c(CC(=O)O)c(C)n2C(=O)c1ccc(Cl)cc1` was “inactive”; that for `COc1cccc(-c2nc(CS(=O)(=O)CC(=O)NCc3ccc(C)cc3)c(C)o2)c1` was inactive: -8.06%.
On to `Cc1ccc2c(c1)NC(c1cccnc1)=NC(c1ccc(F)cc1)=N2`, for which the “activity change, negative = inhibition” value is inactive: -8.79%.
As to `Cc1ccc(C)c(NC(=O)Cn2c(=O)n(Cc3ccco3)c(=O)c3oc4ccccc4c32)c1`, the “activity change, negative = inhibition” value was inactive: 4.93%.
For the compound `Nc1nc2ccc(OC(F)(F)F)cc2s1`, the activity change, negative = inhibition entry was “inactive”.
For `Oc1cc(O)c2c(c1)O[C@H](c1ccc(O)c(O)c1)[C@H](O)C2`, the “activity change, negative = inhibition” value was inactive: 11.4%.
On the same count and under the same terms, in the case of `Cc1cccc(OCC(=O)OCc2cc(=O)n3nc(C4CCCCC4)sc3n2)c1` it was inactive: -0.319%; in that of `CCOC(=O)C(CC)n1nc(C)n2c(cc3occc32)c1=O` (configuration not stated), inactive: -17%.
Take `CN1CCC(=C2c3ccccc3CCc3cccnc32)CC1`: the “activity change, negative = inhibition” value was inactive: 8.59%.
As for `COc1ccnc2c1CCCCC2S(=O)c1nc2ccccc2[nH]1` (configuration not stated), the “activity change, negative = inhibition” value was inactive: 18.2%.
For `Cc1csc2nc(-c3cccc(NC(=O)c4ccccc4Cl)c3)cn12`, the “activity change, negative = inhibition” value was inactive: 4.34%.
Take `Cc1ccc(S(=O)(=O)NCC(c2ccc(N(C)C)cc2)N2CCOCC2)cc1` (configuration not stated): the “activity change, negative = inhibition” value is inactive: -14.2%.
As for `O=C(NC1CCCCCC1)C1CCN(C(=O)N2CCOc3ccccc32)CC1`, the “activity change, negative = inhibition” value is inactive: 8.43%.
